Measurements: PubChem BioAssay AID1508623 (National Center for Advancing Translational Sciences (NCATS), 2021)
The campaign covered roughly 48,000 compounds. About 450 (0.94%) were called active. Not shown: some 19% with an inconclusive outcome. The call rests on the fitted dose curve; in most records, active means well fitted inhibition curve with a large enough effect; inconclusive means small, poorly fitted or top-dose-only effect; inactive means no such curve, though single readings can be large or run the other way. Some of the results follow.

Test: Primary qHTS for Identification of Small Molecule Inhibitors of Huntingtin Promoter Activity; further: nearly all actives have a fitted effect of over 50% in size
Conditions: HEK293 HTT promoter firefly luciferase reporter (activity 0% = vehicle and -100% = no light), 24 h; series mostly up to 57.5 µM; activity change, negative = inhibition: at the top concentration
How it was run: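 HEK293 luciferase promoter-reporter cells (2,500/well) plated 24 h, then compounds added at up to 57.5 uM final for 24 h at 37 °C. Firefly luminescence by Dual-Glo, normalized to vehicle (0%) and zero RLU (-100%).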

Structure (SMILES) | activity change, negative = inhibition
CC1=C(C(=O)Nc2cccnc2)C(c2ccccc2)n2nc(SCc3ccccc3F)nc2N1 (stereo not drawn) | inactive: -27.5%
COc1ccc(-c2coc3c2c(C)cc2oc(=O)cc(C)c23)cc1 | inactive: 2.88%
O=C(NC1CCCC1)c1ccc2c(c1)N(Cc1ccccc1F)C(=O)c1ccccc1S2 | inactive: -8.61%
CCOc1ccc(N(CC(=O)NCc2ccc(Cl)cc2)S(=O)(=O)c2c(C)noc2C)cc1 | inactive: -4.69%
Cc1c(NC(=O)c2ccc(N3CCC(C)CC3)c([N+](=O)[O-])c2)cccc1-c1nc2ccccc2o1 | inactive: -30.6%
Cc1ccc(C(=O)Nc2ccc(OCc3cc(=O)n4c5c(sc4n3)CCCC5)cc2)cc1 | inactive: -25.3%
Cc1cccc(N2CCN(C(=O)c3oc(=O)c4ccccc4c3-c3ccccc3)CC2)c1C | inactive: -9.19%
COCCCNC(=O)C1CCC(Cn2c(=O)c3sccc3n(Cc3ccc(F)cc3)c2=O)CC1 (stereo not drawn) | inactive: 4.7%
Cc1cc(NC(=O)Nc2csc3c2CCCC3)ccc1Br | inactive: -6.1%
Cc1cc(C)cc(NC(=O)c2sc3nc(-c4cc5ccccc5oc4=O)[nH]c(=O)c3c2C)c1 | inactive: 6.55%
COC(=O)c1c(C)sc(-c2c(-c3cccc(Cl)c3)[nH]c3c2c(=O)[nH]c(=O)n3C)c1O | inactive: -4.63%
O=C(NCc1ccccc1)c1csc(Nc2ccncn2)n1 | inactive: -22%
Cc1cccc(N(C)C(=S)Oc2ccc3c(c2)CCC3)c1 | inactive: -7.79%
COc1ccc(CCNC(=O)CCc2c(C)nc3c(c(C)nn3-c3ccccc3)c2C)c(OC)c1 | inactive: 0%
CCCNC(=O)CCC(=O)N1Cc2ccccc2Oc2ncccc21 | inactive: 6.78%
COc1ccc(C(=O)CN2C(=O)N(c3cc(C)ccc3C)S(=O)(=O)c3ccccc32)cc1 | inactive: -16.6%
C=CC(=O)Nc1cc2c(Nc3ccc(F)c(Cl)c3)ncnc2cc1OCCCN1CCOCC1 | inactive: -10.9%
CCOC(=O)c1c(C)oc2nc(C)nc(NC(C)c3ccccc3)c12 (stereo not drawn) | inactive: -16.6%
Cc1cccc(OCC(=O)Nc2ccc3c(c2)nc(CCNC(=O)c2ccco2)n3C)c1 | inactive: -3.67%
Cc1nc2c3ccccc3nc(NNC(=O)CCC(=O)N3CCN(c4ccccc4)CC3)n2n1 | inactive: -13.1%
CCOc1ccc(NC(=O)CSc2nccn2Cc2ccco2)cc1 | inactive: 72.6%
COc1ccc(-c2nc3ccccc3s2)cc1NC(=O)COc1ccc(C)cc1 | inactive: 72.4%
COc1ccc(OCC(=O)OCc2cc(=O)n3cc(C)sc3n2)cc1 | inactive: -21.3%
COc1ccc(NC(=O)c2cc3nc(-c4ccc(C)c(C)c4)cc(C(F)(F)F)n3n2)cc1 | inactive: -4.3%

Structure (SMILES) | activity change, negative = inhibition
CCc1ccccc1NC(=O)c1ccc2c(O)c(S(=O)(=O)c3ccccc3)c(=O)[nH]c2c1 | inactive: -15.4%
CC(C)(C)NCC(O)COc1cccc2c1CCC(=O)N2 (stereo not drawn) | inactive: 9.22%
CCOC(=O)C1CCN(C(=O)CCS(=O)(=O)c2cc3c(cc2Cl)NC(=O)CO3)CC1 | inactive: -7.63%
Cc1ccc(N(CC(=O)NCc2ccc(Cl)cc2)S(=O)(=O)N(C)C)cc1 | inactive: -20.4%
COc1ccc(-c2cc(OC(=O)c3ccc(Cl)cc3)c3c(C)oc(C)c3c(=O)c2)cc1 | inactive: -28.9%
Cc1ccc(C(=O)Nc2cccc(-c3nc4cccnc4s3)c2C)cc1 | inactive: -24.9%
Cc1cccc(CN2C(=O)c3ccccc3S(=O)(=O)c3ccc(C(=O)NCCC4=CCCCC4)cc32)c1 | inactive: -9.75%
CCCN1CCN(CCNC(=O)Nc2ccc(OC)cc2OC)CC1 | inactive: -1.21%
O=C(CC1C(=O)N(c2ccccc2)C(=O)N1CCC1=CCCCC1)Nc1ccc(F)cc1 (stereo not drawn) | inactive: -40.7%
Cc1ccccc1NC(=O)CSc1nc(-c2ccccc2C)nc2cc(=O)[nH]n12 | inactive: -10.1%
COCCNC(=O)Cn1nc(N2CCN(c3ccccc3OC)CC2)ccc1=O | inactive: 9.6%
CCOc1ccc(NC(=O)N2CCN(S(=O)(=O)c3ccc4c(ccn4C)c3)CC2)cc1 | inactive: -17.1%
CCc1ccc(C(=O)c2cn(CC(=O)Nc3ccc(F)cc3)c3ccc(OC)cc3c2=O)cc1 | inactive: -8.63%
CC(=O)N1CCN(c2csc3ccc(F)cc3c2=O)CC1 | inactive: 3.94%
O=C1CN(C(=O)Cc2ccc(F)cc2)C(c2ccccc2)c2cc(Cl)ccc2N1 (stereo not drawn) | inactive: -28%
COc1ccc(NC(=O)Cn2c(=O)n(C(C)C)c(=O)c3oc4ccccc4c32)cc1Cl | inactive: -2.04%
COc1ccc(-c2cc(C(C)=O)c(C)n2CCC(=O)NCc2ccccc2OC)cc1 | inactive: -29.6%
Cc1nn(-c2ccccc2)c(OC(=O)C(C)C)c1Sc1ccccc1 | inactive: -6.96%
Brc1cccc(CNCCSc2nnnn2-c2ccccc2)c1 | inactive: -19.1%
CCc1ccccc1N(C)C(=O)Cc1c(C(=O)O)c(C)cn1C | inactive: -8.65%
Cc1cc(C)c(NC(=O)C(C)n2nc(-c3ccc(C)c(C)c3)ccc2=O)c(C)c1 (stereo not drawn) | inactive: -5.13%
Cc1cc(C)cc(OCC(=O)NCCc2nc3ccccc3[nH]2)c1 | inactive: -19.5%
COC(=O)c1cccc(-n2c(CCC(=O)O)ccc2-c2ccc(OC)cc2)c1 | inactive: -17.9%
Cc1ccc(Cl)cc1NC(=O)C(C)n1nnc2sc(-c3ccccc3)cc2c1=O (stereo not drawn) | inactive: -2.74%
